Experimental data reported in patent US11713344B2 (DONG-A ST CO., LTD., priority 2017, dated 2023).
For part of these data: Part of at least one peptide drawing is inferred or uncertain, most often the ends. For at least one compound, name, drawing or mass did not settle the structure. Some compounds share one wording; it may come from a single statement. Some results were stated once for a whole list of compounds, not compound by compound. Some compounds share one range, which may span the group rather than tell each member. *1 amine or outer side, *2 acyl side, *3 side chain or, on linkers, in order; H or OH if unused. Where a SMILES comes first, the peptide text is derived from it. Bridges are numbered along the chain shown (N, C = ends). Side-chain parts run from the residue outwards. [ ]: non-standard residue; d: D form. The star is where a group is joined. γGlu = O=C(O)[C@H](CCC(=O)[*:2])N[*:1]; Stearoyl = CCCCCCCCCCCCCCCCCC(=O)*; AEEA = NCCOCCOCC(=O)O; Aib = CC(C)(N)C(=O)O

Legend:
Human GLP-1 receptors = Human GLP-1 receptors (Homo sapiens, UniProt P43220); test: GLP-1 receptor activation assay (CRE-luciferase reporter, CHO-K1); conditions: for activity on GLP-1 receptors (in words): comparison in text of Table 5 results
Chain of Human GLP-1 receptors (P43220 24-463): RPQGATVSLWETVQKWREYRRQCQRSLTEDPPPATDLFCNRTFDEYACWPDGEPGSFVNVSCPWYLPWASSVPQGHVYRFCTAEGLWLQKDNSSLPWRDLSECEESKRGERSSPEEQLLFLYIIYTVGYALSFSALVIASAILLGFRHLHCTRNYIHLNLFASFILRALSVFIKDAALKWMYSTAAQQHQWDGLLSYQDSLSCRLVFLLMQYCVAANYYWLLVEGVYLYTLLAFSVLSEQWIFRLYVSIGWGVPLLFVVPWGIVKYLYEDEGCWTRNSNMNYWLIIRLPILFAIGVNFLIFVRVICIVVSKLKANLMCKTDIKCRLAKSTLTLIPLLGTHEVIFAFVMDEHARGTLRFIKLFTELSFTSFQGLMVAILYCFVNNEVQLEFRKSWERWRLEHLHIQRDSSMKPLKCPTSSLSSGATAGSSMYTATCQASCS

Human glucagon receptors = Human glucagon receptors (Homo sapiens, UniProt P47871); test: Glucagon receptor activation assay (CRE-luciferase reporter, CHO-K1); conditions: for activity on glucagon receptors (in words): comparison in text of Table 5 results
Chain of Human glucagon receptors (P47871 26-477): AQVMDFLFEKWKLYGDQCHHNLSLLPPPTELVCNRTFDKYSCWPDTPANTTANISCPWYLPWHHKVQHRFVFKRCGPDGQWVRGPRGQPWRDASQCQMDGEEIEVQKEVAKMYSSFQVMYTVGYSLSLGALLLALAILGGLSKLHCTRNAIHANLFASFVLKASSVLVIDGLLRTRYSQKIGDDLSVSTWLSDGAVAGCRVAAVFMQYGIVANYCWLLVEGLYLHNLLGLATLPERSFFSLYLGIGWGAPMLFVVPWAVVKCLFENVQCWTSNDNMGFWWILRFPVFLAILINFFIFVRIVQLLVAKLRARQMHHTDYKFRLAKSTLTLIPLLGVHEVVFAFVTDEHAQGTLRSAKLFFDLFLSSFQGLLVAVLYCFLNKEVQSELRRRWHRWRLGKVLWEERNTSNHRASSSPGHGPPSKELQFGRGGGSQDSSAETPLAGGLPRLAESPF

[1] = Body weight loss efficacy by 10-day repeated injection, Compounds 3, 10, 14, obese mice (Exp. Ex. 6); type: in vivo, C57BL/6 mouse; conditions: 100 nmol/kg s.c. once every 3 days x 4, 10 days

Row | Structure (SMILES) | activity on GLP-1 receptors (in words) (Human GLP-1 receptors) | activity on glucagon receptors (in words) (Human glucagon receptors) | further results
1 | CCCCCCCCCCCCCCCCCC(=O)N[C@@H](CCC(=O)NCCOCCOCC(=O)NCCOCCOCC(=O)NCCCC[C@H](NC(=O)[C@H](CC(=O)O)NC(=O)[C@H](CO)NC(=O)[C@@H](NC(=O)[C@H](Cc1ccccc1)NC(=O)[C@@H](NC(=O)CNC(=O)[C@H](CCC(N)=O)NC(=O)C(C)(C)NC(=O)[C@@H](N)Cc1c[nH]cn1)[C@@H](C)O)[C@@H](C)O)C(=O)N[C@@H](CO)C(=O)N[C@@H](CCCCN)C(=O)N[C@@H](Cc1ccc(O)cc1)C(=O)N[C@@H](CC(C)C)C(=O)N[C@@H](CC(=O)O)C(=O)N[C@H]1CSSC[C@@H](C(=O)N[C@@H](CC(=O)O)C(=O)N[C@@H](Cc2ccccc2)C(=O)N[C@H](C(=O)N[C@@H](CCC(N)=O)C(=O)N[C@@H](Cc2c[nH]c3ccccc23)C(=O)N[C@@H](CC(C)C)C(=O)N[C@@H](CCSC)C(=O)N[C@@H](CC(N)=O)C(=O)N[C@H](C(=O)N[C@@H](CCCCN)C(=O)O)[C@@H](C)O)C(C)C)NC(=O)[C@H](C)NC(=O)[C@H](CCCNC(=N)N)NC(=O)[C@H](CCCNC(=N)N)NC1=O)C(=O)O [Compound 28, H-HAibQGTFTSDZSKYLDCRRACDFVQWLMNTK-OH] | lower activity on GLP-1 and glucagon receptors compared to Compound 22 | lower activity on GLP-1 and glucagon receptors compared to Compound 22 | 
2 | CSCC[C@H](NC(=O)[C@H](CC(C)C)NC(=O)[C@H](Cc1c[nH]c2ccccc12)NC(=O)[C@H](CCC(N)=O)NC(=O)[C@@H](NC(=O)[C@H](Cc1ccccc1)NC(=O)[C@H](CC(=O)O)NC(=O)[C@H](CCC(N)=O)NC(=O)[C@H](C)NC(=O)[C@H](CCCNC(=N)N)NC(=O)[C@H](CCCNC(=N)N)NC(=O)C(C)(C)NC(=O)[C@H](CC(=O)O)NC(=O)[C@H](CC(C)C)NC(=O)[C@H](Cc1ccc(O)cc1)NC(=O)[C@H](CCCCN)NC(=O)[C@H](CO)NC(=O)[C@H](CCCCNC(=O)COCCOCCNC(=O)COCCOCCNC(=O)CC[C@H](NC(=O)CCCCCCCCCCCCCCC(=O)O)C(=O)O)NC(=O)[C@H](CC(=O)O)NC(=O)[C@H](CO)NC(=O)[C@@H](NC(=O)[C@H](Cc1ccccc1)NC(=O)[C@@H](NC(=O)CNC(=O)[C@H](CCC(N)=O)NC(=O)C(C)(C)NC(=O)[C@@H](N)Cc1c[nH]cn1)[C@@H](C)O)[C@@H](C)O)C(C)C)C(=O)N[C@@H](CC(N)=O)C(=O)N[C@H](C(=O)N[C@@H](CCCCN)C(=O)O)[C@@H](C)O [Compound 42] | lower activity on GLP-1 and glucagon receptors regardless of lipid carbon length | lower activity on GLP-1 and glucagon receptors regardless of lipid carbon length | 
3 | CSCC[C@H](NC(=O)[C@H](CC(C)C)NC(=O)[C@H](Cc1c[nH]c2ccccc12)NC(=O)[C@H](CCC(N)=O)NC(=O)[C@@H](NC(=O)[C@H](Cc1ccccc1)NC(=O)[C@H](CC(=O)O)NC(=O)[C@H](CCC(N)=O)NC(=O)[C@H](C)NC(=O)[C@H](CCCNC(=N)N)NC(=O)[C@H](CCCNC(=N)N)NC(=O)C(C)(C)NC(=O)[C@H](CC(=O)O)NC(=O)[C@H](CC(C)C)NC(=O)[C@H](Cc1ccc(O)cc1)NC(=O)[C@H](CCCCN)NC(=O)[C@H](CO)NC(=O)[C@H](CCCCNC(=O)COCCOCCNC(=O)COCCOCCNC(=O)CC[C@H](NC(=O)CCCCCCCCCCCCCCC(=O)N[C@H](C(=O)O)C(C)C)C(=O)O)NC(=O)[C@H](CC(=O)O)NC(=O)[C@H](CO)NC(=O)[C@@H](NC(=O)[C@H](Cc1ccccc1)NC(=O)[C@@H](NC(=O)CNC(=O)[C@H](CCC(N)=O)NC(=O)C(C)(C)NC(=O)[C@@H](N)Cc1c[nH]cn1)[C@@H](C)O)[C@@H](C)O)C(C)C)C(=O)N[C@@H](CC(N)=O)C(=O)N[C@H](C(=O)N[C@@H](CCCCN)C(=O)O)[C@@H](C)O [Compound 46] | lower activity on GLP-1 and glucagon receptors compared to Compound 3 | lower activity on GLP-1 and glucagon receptors compared to Compound 3 | 
4 | CSCC[C@H](NC(=O)[C@H](CC(C)C)NC(=O)[C@H](Cc1c[nH]c2ccccc12)NC(=O)[C@H](CCC(N)=O)NC(=O)[C@@H](NC(=O)[C@H](Cc1ccccc1)NC(=O)[C@H](CC(=O)O)NC(=O)[C@H](CCC(N)=O)NC(=O)[C@H](C)NC(=O)[C@H](CCCNC(=N)N)NC(=O)[C@H](CCCNC(=N)N)NC(=O)C(C)(C)NC(=O)[C@H](CC(=O)O)NC(=O)[C@H](CC(C)C)NC(=O)[C@H](Cc1ccc(O)cc1)NC(=O)[C@H](CCCCN)NC(=O)[C@H](CO)NC(=O)[C@H](CCCCNC(=O)COCCOCCNC(=O)COCCOCCNC(=O)CC[C@H](NC(=O)CCCCCCCCCCCCCCCCC(=O)O)C(=O)O)NC(=O)[C@H](CC(=O)O)NC(=O)[C@H](CO)NC(=O)[C@@H](NC(=O)[C@H](Cc1ccccc1)NC(=O)[C@@H](NC(=O)CNC(=O)[C@H](CCC(N)=O)NC(=O)C(C)(C)NC(=O)[C@@H](N)Cc1c[nH]cn1)[C@@H](C)O)[C@@H](C)O)C(C)C)C(=O)N[C@@H](CC(N)=O)C(=O)N[C@H](C(=O)N[C@@H](CCCCN)C(=O)O)[C@@H](C)O [Compound 43] | lower activity on GLP-1 and glucagon receptors regardless of lipid carbon length | lower activity on GLP-1 and glucagon receptors regardless of lipid carbon length | 
5 | CCCCCCCCCCCCCCCCCC(=O)N[C@@H](CCC(=O)NCCOCCOCC(=O)NCCOCCOCC(=O)NCCCC[C@H](NC(=O)[C@H](CC(=O)O)NC(=O)[C@H](CO)NC(=O)[C@@H](NC(=O)[C@H](Cc1ccccc1)NC(=O)[C@@H](NC(=O)CNC(=O)[C@H](CCC(N)=O)NC(=O)C(C)(C)NC(=O)[C@@H](N)Cc1c[nH]cn1)[C@@H](C)O)[C@@H](C)O)C(=O)N[C@@H](CO)C(=O)N[C@@H](CCCCN)C(=O)N[C@@H](Cc1ccc(O)cc1)C(=O)N[C@@H](CC(C)C)C(=O)N[C@@H](CC(=O)O)C(=O)N[C@H]1CCC(=O)NCCCC[C@@H](C(=O)N[C@@H](CC(=O)O)C(=O)N[C@@H](Cc2ccccc2)C(=O)N[C@H](C(=O)N[C@@H](CCC(N)=O)C(=O)N[C@@H](Cc2c[nH]c3ccccc23)C(=O)N[C@@H](CC(C)C)C(=O)N[C@@H](CCSC)C(=O)N[C@@H](CC(N)=O)C(=O)N[C@H](C(=O)N[C@@H](CCCCN)C(=O)O)[C@@H](C)O)C(C)C)NC(=O)[C@H](C)NC(=O)[C@H](CCCNC(=N)N)NC(=O)[C@H](CCCNC(=N)N)NC1=O)C(=O)O [Compound 14, H-HAibQGTFTSDZSKYLDERRAKDFVQWLMNTK-OH] |  |  | body weight loss efficacy (in words) [1]: slightly better results than Compounds 3 and 10; body weight loss efficacy from initial body weight [1]: 19-22%; cumulative food intake reduced against vehicle control group [1]: 27%
6 | CCCCCCCCCCCCCCCCCC(=O)N[C@@H](CCC(=O)NCCOCCOCC(=O)NCCOCCOCC(=O)NCCCC[C@H](NC(=O)[C@H](CC(=O)O)NC(=O)[C@H](CO)NC(=O)[C@@H](NC(=O)[C@H](Cc1ccccc1)NC(=O)[C@@H](NC(=O)CNC(=O)[C@H](CCC(N)=O)NC(=O)C(C)(C)NC(=O)[C@@H](N)Cc1c[nH]cn1)[C@@H](C)O)[C@@H](C)O)C(=O)N[C@@H](CO)C(=O)N[C@@H](CCCCN)C(=O)N[C@@H](Cc1ccc(O)cc1)C(=O)N[C@@H](CC(C)C)C(=O)N[C@@H](CC(=O)O)C(=O)N[C@H]1CCCCNC(=O)CC[C@@H](C(=O)N[C@@H](CC(=O)O)C(=O)N[C@@H](Cc2ccccc2)C(=O)N[C@H](C(=O)N[C@@H](CCC(N)=O)C(=O)N[C@@H](Cc2c[nH]c3ccccc23)C(=O)N[C@@H](CC(C)C)C(=O)N[C@@H](CCSC)C(=O)N[C@@H](CC(N)=O)C(=O)N[C@H](C(=O)N[C@@H](CCCCN)C(=O)O)[C@@H](C)O)C(C)C)NC(=O)[C@H](C)NC(=O)[C@H](CCCNC(=N)N)NC(=O)[C@H](CCCNC(=N)N)NC1=O)C(=O)O [Compound 21, H-HAibQGTFTSPZSKYLDKRRAEDFVQWLMNTK-OH] (H-H[Aib]QGTFTSDK([AEEA-AEEA-γGlu-Stearoyl])SKYLDKRRAEDFVQWLMNTK-OH; lactam 16-20) |  |  | EC50 (Human GLP-1 receptors; read-out: EC50(pM) On GLP-1 receptors, CHO-K1 transiently expressing human GLP-1 receptor, luciferase, 6 hours, 0.1% BSA): < 10 pM; EC50 (Human glucagon receptors; read-out: EC50(pM) On glucagon receptors, CHO-K1 transiently expressing human glucagon receptor, luciferase, 6 hours, 0.1% BSA): < 10 pM
7 | CSCC[C@H](NC(=O)[C@H](CC(C)C)NC(=O)[C@H](Cc1c[nH]c2ccccc12)NC(=O)[C@H](CCC(N)=O)NC(=O)[C@@H](NC(=O)[C@H](Cc1ccccc1)NC(=O)[C@H](CC(=O)O)NC(=O)[C@H](CCC(N)=O)NC(=O)[C@H](C)NC(=O)[C@H](CCCNC(=N)N)NC(=O)[C@H](CCCNC(=N)N)NC(=O)C(C)(C)NC(=O)[C@H](CC(=O)O)NC(=O)[C@H](CC(C)C)NC(=O)[C@H](Cc1ccc(O)cc1)NC(=O)[C@H](CCCCN)NC(=O)[C@H](CO)NC(=O)[C@H](CCCCNC(=O)COCCOCCNC(=O)COCCOCCNC(=O)CC[C@H](NC(=O)CCCCCCCCCCCCCCCCCCC(=O)O)C(=O)O)NC(=O)[C@H](CC(=O)O)NC(=O)[C@H](CO)NC(=O)[C@@H](NC(=O)[C@H](Cc1ccccc1)NC(=O)[C@@H](NC(=O)CNC(=O)[C@H](CCC(N)=O)NC(=O)C(C)(C)NC(=O)[C@@H](N)Cc1c[nH]cn1)[C@@H](C)O)[C@@H](C)O)C(C)C)C(=O)N[C@@H](CC(N)=O)C(=O)N[C@H](C(=O)N[C@@H](CCCCN)C(=O)O)[C@@H](C)O [Compound 44] | lower activity on GLP-1 and glucagon receptors regardless of lipid carbon length | lower activity on GLP-1 and glucagon receptors regardless of lipid carbon length | 
